Data published in the RNAGym collection of RNA variant scans (doi:10.1073/pnas.2313332121).
This sample is rich in variants without activity.

B1: TPR 5TU (parent)
chain: GGAUCUUCUCGAUCUAACAAAAAAGACAAAUCUGCCACAAAGCUUGAGAGCAUCUUCGGAUGCAGAGGCGGCAGCCUUCGGUGGCGCGAUAGCGCCAACGUUCUCAACUAUGACACGCAAAACGCGUGCUCCGUUGAAUGGAGUUUAUCAUG

Variants of: B1
Assay: polymerase ribozyme fitness, log enrichment relative to wild type (log ratio); higher = more active; in vitro selection for triplet polymerase activity
In short: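 PCR was used to build mutant libraries for each subunit of a heterodimeric triplet polymerase ribozyme, which were then transcribed. A single in vitro selection round, in triplicate, used a frozen incubation at −7 °C and recovered extended constructs by gel excision, streptavidin beads and RT-PCR. Fitness is the logarithm of genotype enrichment relative to wild-type enrichment, averaged over replicates with inverse-variance weights. The logarithm is base 2, and after Illumina sequencing only genotypes with ≥10 input reads and ≥1 read per output were kept.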

Polymerase ribozyme fitness (log ratio), ≤ -4.2:
GGAUCUUCUCGAUCUAACAAAAAAGACAAAUCUGCCACAAAGCUUGAGAGCAUCUUCGGAUGCAGAGGCGGCACCCUUCGGUGGCGCGAUAGCGCCAACGUUCUGAACUAUGACAGGCAAAACGCGUGCUCCGUUGAAUGGAGUUUAUCAUG [G74C C105G C116G]
GGAUCUUCUCGAUCUAACAAAAAAGACAAAUCUGCCACAAAGCUUGAGAGCAUCUUCGGAUGCAGAGGCGGCAUCCUUCGGUGGCGCGAUAGCACCAACGUUAUGAACUAUGUCACGCAAAACGCGUGCUCCAUUAAAUGUAGUUUAUCAUG [G74U G94A C103A C105G A113U G133A G136A G141U]
GGAUCUUCUCGAUCUAACAAAAAAGACAAAUCUGCCACAAAGCUUGAGAGCAUCUUCGGAUGCAGAGGCGGCAUCCUUGGGUGGCGCGAUAGCGCCAACGUUCUCAACUAUGACACGCAAAACGCGUGCUCCGUUGAAUGGAGUUUAUCAUG [G74U C79G]
GGAUCUUCUCGAUCUAACAAAAAAGACAAAUCUGCCACAAAGCUUGAGAGCAUCUUCGGAUGCAGAGGCGGCAUCCUUCGGUCGCGCGAUAGCGCCAACGUUCUGAACUAUGACACGCAAAACGCGUGCUCCGUUGAAUGGAGUUUAUCAUG [G74U G83C C105G]
GGAUCUUCUCGAUCUAACAAAAAAGACAAAUCUGCCACAAAGCUUGAGAGCAUCUUCGGAUGCAGAGGCGGCAGACUUCGGUGGUGCGAUAGCGCAAACGUUCUCAACUAUGACACACAAAACGCGUGCUCCGUUGAAUGGAGUUUAUCAUG [C75A C85U C96A G117A]
GGAUCUUCUCGAUCUAACAAAAAAGACAAAUCUGCCACAAAGCUUGAGAGCAUCUUCGGAUGCAGAGGCGGCAUCCUUCGGUGGCGCGAUAACGCCAACGUUCUCAACUAUGACACGCAAAACGCGUGCUACGUUGAAUGGAAUUUAUCAUG [G74U G92A C131A G143A]
GGAUCUUCUCGAUCUAACAAAAAAGACAAAUCUGCCACAAAGCUUGAGAGCAUCUUCGGAUGCAGAGGCGGCAGACUUCGGUGGCGAGAUAGCACAAACGUUCUCAACUAUGACACGCAAAACGCGUGCUCCGUUGAAUGCAGUUUAUCAUG [C75A C87A G94A C96A G141C]
GGAUCUUCUCGAUCUAACAAAAAAGACAAAUCUGCCACAAAGCUUGAGAGCAUCUUCGGAUGCAGAGGCGGCAGACUUCGGUGGCGCGUUAGCGCCAACGUUCUCAACUAUGACACGCAAAACGCGUGCUCCGUUGAAUGGACUUUAUCAUG [C75A A89U G143C]
GGAUCUUCUCGAUCUAACAAAAAAGACAAAUCUGCCACAAAGCUUGAGAGCAUCUUCGGAUGCAGAGGCGGCACCCUUCGGUAGCGCGAUAGCGUCAACGUUCUCAACUAUGACACGCAAAACGCGUGCUCCGUUAAAUGGAGUUUAUCAUG [G74C G83A C95U G136A]
GGAUCUUCUCGAUCUAACAAAAAAGACAAAUCUGCCACAAAGCUUGAGAGCAUCUUCGGAUGCAGAGGCGGCAGACUUCGGUGACGCGAUAGCGCCAACGUUCUCAACUAUGACACGCAAAACGCGUGCUCCGUUGAAUGGAGUUUAUCAUG [C75A G84A]
GGAUCUUCUCGAUCUAACAAAAAAGACAAAUCUGCCACAAAGCUUGAGAGCAUCUUCGGAUGCAGAGGCGGCAGACUUCGGUGUCGCGAUAGCGCCAACGUUCUCAACUAUGACACGCAAAACGCGUGCUCCGUUGAAUGGAGUUUAUCAUG [C75A G84U]
GGAUCUUCUCGAUCUAACAAAAAAGACAAAUCUGCCACAAAGCUUGAGAGCAUCUUCGGAUGCAGAGGCGGCAUCCUUCGGUGGCGCGAUAGCGCCAACGUUCUCAACUAUGACACGCAUAACGCGUGCUCCGUUGAAUGGAGUUUAUCAUG [G74U A120U]
GGAUCUUCUCGAUCUAACAAAAAAGACAAAUCUGCCACAAAGCUUGAGAGCAUCUUCGGAUGCAGAGGCGGCACCCUUCGGUGGCGCGAUAGCGCCAACUUUCUCAACUAUGACACGCAAAACGCGUGCUCCGUUGAAUGGAGUUUUUCAUG [G74C G100U A147U]
GGAUCUUCUCGAUCUAACAAAAAAGACAAAUCUGCCACAAAGCUUGAGAGCAUCUUCGGAUGCAGAGGCGGCAUCCUUCUGUGGCGCGAGAGCGCCAACGUUCUCAACUAUGACACGCAAAACGCGUGGUCCGUUGAAUGGAGUUUAUCAUG [G74U G80U U90G C129G]
GGAUCUUCUCGAUCUAACAAAAAAGACAAAUCUGCCACAAAGCUUGAGAGCAUCUUCGGAUGCAGAGGCGGCAGACUUGGGUGGCGCGAUAGCGCCAACGUUCUCAACUAUGACACGCAAAACGCGUGCUCCGUUGAAUGGAGUUUAUCAUG [C75A C79G]
GGAUCUUCUCGAUCUAACAAAAAAGACAAAUCUGCCACAAAGCUUGAGAGCAUCUUCGGAUGCAGAGGCGGCAGACUUCGGUGGCGCGAUAGCGCCAACGUUCUCAACUAUGACACGCAAAACGCGUGCUCCGUUGAAUGGUGUUUAUCAUG [C75A A142U]
GGAUCUUCUCGAUCUAACAAAAAAGACAAAUCUGCCACAAAGCUUGAGAGCAUCUUCGGAUGCAGAGGCGGCAUCCUUCGGUGGCGCGAUAGAGCCAACGUUCUCAACUAUGACACGCAAAACGCGUGCUCCGUUGAAUGGAGUUUAUCAUG [G74U C93A]
GGAUCUUCUCGAUCUAACAAAAAAGACAAAUCUGCCACAAAGCUUGAGAGCAUCUUCGGAUGCAGAGGCGGCAGACUUCGGUGGCGCGAUAGCGCCAACGUUCUCUACUAUGACACGCAAAACGCGUGCUCCGUUGAAUGGAGUUUAUCAUG [C75A A106U]
GGAUCUUCUCGAUCUAACAAAAAAGACAAAUCUGCCACAAAGCUUGAGAGCAUCUUCGGAUGCAGAGGCGGCAGACUUCGGUGGCGCGAUGGGGCCAACGUUCUCAACUAUGACCCGCAAAACGCGUGCUCCGUUGAAUUGAGUUUAUCAUG [C75A A91G C93G A115C G140U]
